The values that follow come from paper PMC7904957 (Journal of medical genetics, 2020).

This assay has as its target His6-tagged heterodimeric complex composed of TRAPPC3 and TRAPPC6a (human, UniProt O43617; O75865). Kind of assay: pull-down.

B1: GST-tagged TRAPPC2L p.(Asp37Tyr) (natural protein)
chain: not shown
B1: the binding result is given as “binds”.
